Data reported in the supplement of paper PMC12632987.
Whole data set: some 1,800 sequences, median “median log2 fold change of GCK-ALFA target abundance (FLAG IP / Myc IP barcode read proportion)” near 0.14, cut for the lowest 2% near -0.84. The list shows a part of the results.

T1: TRAF2, Q12933
T1 chain: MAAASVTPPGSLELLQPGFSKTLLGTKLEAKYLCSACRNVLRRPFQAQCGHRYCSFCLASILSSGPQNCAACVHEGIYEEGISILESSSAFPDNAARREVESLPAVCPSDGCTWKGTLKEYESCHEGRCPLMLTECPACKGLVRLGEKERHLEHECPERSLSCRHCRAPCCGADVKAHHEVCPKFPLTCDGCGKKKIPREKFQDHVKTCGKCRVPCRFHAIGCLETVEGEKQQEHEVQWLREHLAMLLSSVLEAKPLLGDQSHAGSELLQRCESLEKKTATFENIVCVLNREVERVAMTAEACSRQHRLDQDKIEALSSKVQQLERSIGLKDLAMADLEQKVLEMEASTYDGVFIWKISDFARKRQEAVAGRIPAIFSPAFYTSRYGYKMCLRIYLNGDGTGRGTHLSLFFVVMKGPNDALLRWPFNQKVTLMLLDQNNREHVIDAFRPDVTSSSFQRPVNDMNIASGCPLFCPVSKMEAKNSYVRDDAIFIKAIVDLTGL

B1: traf2_out_18_117_1793 (protein)
chain: SELDEIIKELEKLAEELDKAASRLGKLMLEKWEELSPEERSEAMDVLADLTAVRQEALRLIQEIKAGKIPLEEAKKRAEELKKRAEEALKRAEEMIKKIE
B2: traf2_out_1_158_907 (protein)
chain: STDVSLLNAVATSTLDVYAENAKERGLEKAAALFEELKKEVEELYEKNKDASLEEFAAKLLALLDEFEEKSKSLPAEDRALVDIAIRQARSGILQVVKLA
B3: traf2_out_11_104_649 (protein)
chain: LTREQAREFNDFAMEKRDKALEIAKKVAEELKKAGHEEMAAQVEALINNPGGGISDIRNLLEELKPKLSPEMQKVAEKAIEELEKLQKEVSDKLNELEAK
B4: traf2_out_19_16_1975 (protein)
chain: KEEELKELEERLEKIERRVKELEAYFEANKDTLTREELTDLMVELSELRREAQEIAQKLEELKDYKPEEVKELLERAEEIIERAQRLMNEAYKKYEELLK
B5: traf2_out_8_174_2572 (protein)
chain: DEEKRLKVVADFSTEMADILDEFEEELKKASDLPLEELKKKAEELKKEALEKIDKLKKEWEAKVDEETAKLVQRAANSAKQQIENMAKGAILRKELEDAA
B6: traf2_out_17_162_1570 (protein)
chain: EELEKELEKLKKELEELKKKLEEFKKLLPKFPEMSKEELTDLLVEVSEARRRARELAERLKELGKKLGSEELKKLVEEAEKIAEELNRIANEIYKEIEKK
B7: traf2_out_18_117_1772 (protein)
chain: SEREEIIKELEELAEEVGRAASRLGKAVLEHWEELTPEEKSEAMDVLADLSEVRREALELIHEIKEKNLPLEEAKKKAEELKKKAEEALKRAEEMLEKIK
B8: traf2_out_11_155_702 (protein)
chain: EEKKKLNNELVDKMIEIEEELKEEVKKIIEEAAKKHPEHKEELEKVVKESEPFSGRTFARIAAEKFKELGLEEEAEKIEKLLEEAQKKMNEIYKEIEAKR
B9: traf2_out_16_177_1461 (protein)
chain: EVDKLMDRLVGLSLIQRAARYIVAGKEEEAKKYLEEARKEAEEAGDEETLKRIKELEELAKKNTEEALKKIEELAREAQKEAQRLADEIEELLKKRAEAE
B10: traf2_out_5_63_2345 (protein)
chain: SERDELTALAREADRLVREALEAAKRGEEEEVERLLEEAVKDEELARLALGILRGEERYYKLLGDKPEEAEIARRLRERLEELLERRREERRREEEERRR
B11: traf2_out_3_89_2309 (protein)
chain: AAARAATIAEAERRMDAYAEGFRRSARRVAKEMLADGMSLDTLRGVLEAARSALLEDFRESLREAGLSDEEIDALLARLNARLDAIVDEVVAAAEAERAA
B12: traf2_out_15_180_1316 (protein)
chain: MTEEELEKRIEKANEVADKAQDRLKELLAANPGLSPEERAALRALARSLTTLYFNGEYEEAEAALAAAEARLSPEAAAVARELAEYIKEVVEEAKKELEE
B13: traf2_out_6_3_2506 (protein)
chain: EDEEERERNERAFEELAEMSPETLKTALETELERLRELVADPNASESDVLAAASAAKLLIEVLKKNAEKNPEIKEELEEFIEKAEKELEELMEEWKKKQA
B14: traf2_out_8_174_2566 (protein)
chain: GEREILKIAANVGLEFEKKIEALKEEAKKLLEESPEAALKYVEEEGKKLKEELDKKEEEASKNYSPELQELIKRELNSSKQRVDNLLEGLKLRVEAEKKA
B15: traf2_out_20_3_2057 (protein)
chain: EELEEKIEELLKELEKKLEELKKLLDPEDAKRLEEAWEEVLRAREEGLDEFLVAISRLRRLLLELAERARAEGREEEAALLEEAADIAGKIAHLVYLKIQ
B16: traf2_out_1_27_1010 (protein)
chain: SDEEFRELIREADRALGSLSPEEALAAAREAVRRALELGVGEARHLAVVLILSQSDEELAEALLEAIEEVLREAGVSEEEIEEIRRRAESGRKRLKEALA
B17: traf2_out_11_169_849 (protein)
chain: EEAAKNRAIIDKALELTDKAKAELKEHALALAKEAGLDEAEVKAIFEANAGKSLSAVAAALIDWFKSKGKEDAAAKVLEKYEELQEKINKEMTAFLKELE
B18: traf2_out_20_3_2115 (protein)
chain: KELEEELEKELEEALKLLKEAAKLADPETAKVLEELAKELKKSRELSYSDRLVVVSEIRRKVRELAQKAKEKGDEELAKVLEEAAEKLNRAAGLLMKIIE
B19: traf2_out_18_167_1880 (protein)
chain: SAELEAEYQAASDKLVEYSEIRRWLQLALEALKRSREEALKVLREALEKFPDSEVLKEALEVAETKSDEEFRAFLESKIEELQKKANEEYKKLEELRKKK
B20: traf2_out_14_166_1287 (protein)
chain: MTEEEIKRIREIVDKLEPLTDEAVKKAEEILEKNKEKLSPEDLAELNKLLEIARRNIGSSAINALREMSKIFKKAGLEEAAKEFEKLADELEKKLSELNK
B21: traf2_out_17_162_1481 (protein)
chain: AALAATLAALRAELAALREELERLEKKLEELDSLSKEELTDLLVEASEARRRALRLAERLRALKPEIGAETAGALIAEAEAIAERLQRIANEIYKELEKK
B22: traf2_out_20_3_2257 (protein)
chain: EELRRELERKLEEAERLLEEVEPLLPPEDAARLRELLERAREAFEKDLTDALVYLSELRRAALELAEEARAAGDEETAALLEELAETAQRAMNLVYKLIE
B23: traf2_out_20_38_2005 (protein)
chain: SEEEEEERRLKIIIEAANEELDRWEKEIEELKAEGKTVEEIAERAKEEVRRLLTAAGLEEEAEELIAEIDLVLDSPDALDAIARILARAKALVVQKELNK
B24: traf2_out_20_38_2029 (protein)
chain: SEEEEEERRLEELIKVANDSYDKYTKKFEKLVAEGKTVEEIAELAKKEVKEKLTAAGLEEEAKELIEDIDRALSSPNALRLIVRILARADALVHQKKINE
B25: traf2_out_12_187_968 (protein)
chain: SVAAELQEAAKAALEQALKALRKAAPEHPRFQRMLKRLEEVAELLKKHPEVAADVAVAASLVLRAVRLLEAGLPQEEIDAALEAAEAELEEVLKKLKKLE
B26: traf2_out_13_95_1223 (protein)
chain: SKEANEELRKVSNEMLDQAEAVIDALAARLAPHPETAPDIAAIRAALARQGIRQAIAVLRAAAARHPEVAADYLAAADALEALIREAGKKVAEIDKKAKE
B27: traf2_out_13_169_1029 (protein)
chain: SELRKKTEEELKKALERYLKENEEKIKELKAKGTPLAKRIAELAEKVRKLIDELLEKGDLYDATGLASRLLNILELAEEDPEAALKALEELLKEAERLVA
B28: traf2_out_18_3_1941 (protein)
chain: NEEKLKEISDEIDKIIDEVTAKAREALDRGLAEHPELAAEFEALRADLEAGAAPFGILDELAELWERAGDAAAAAELRAFLAEKRAKLQELVDEYEKLRK
B29: traf2_out_17_178_1745 (protein)
chain: TKEEHRKKAMEAADKLLDLTAKAAAEAKALLEAEGKLTPELAAQLDYVAKTSNLEAAEEVLTKAAAQSSSAEELNKILADLKAEAKPLRQEIGEEVNKML

Target: T1, TRAF2, Q12933
Test: median log2 fold change of GCK-ALFA target abundance (FLAG IP / Myc IP barcode read proportion) (log2 ratio); each designed protein is fused to an ALFA-tag nanobody in HEK293 cells to bring the named protein to FLAG-tagged glucokinase (GCK); Myc marks an untargeted standard; higher = target protein stabilised (more abundant)
Conditions: target protein: 3xFLAG-MCP-GCK-ALFA reporter; HEK293 landing pad (RPLP)
How it was run: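 Binders fused to an ALFA nanobody were recombined as a library into HEK293 landing-pad cells, which were induced with 2 μg mL^−1 doxycycline and then transfected to express a FLAG-tagged target and a Myc-tagged standard. After 48 h, circular RNA barcodes recovered by anti-FLAG and anti-Myc immunoprecipitation of lysates were reverse transcribed, amplified and sequenced. Each binder's target abundance is the median log2 ratio of FLAG to Myc barcode read proportions, from barcodes present at ≥10^−7 in both replicates, binders carrying ≥3 barcodes per replicate, a 10^−6 pseudocount and pooled replicates.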

Binder | median log2 fold change
B1 | 0.574
B2 | 0.206
B3 | 0.21
B4 | 0.162
B5 | 0.209
B6 | 0.752
B7 | 0.12
B8 | 0.328
B9 | -0.0133
B10 | 0.129
B11 | 0.0782
B12 | 0.178
B13 | 0.236
B14 | 0.206
B15 | -0.13
B16 | -0.00892
B17 | 0.136
B18 | 0.0891
B19 | 0.282
B20 | 0.427
B21 | -0.17
B22 | 0.288
B23 | -1.09
B24 | -1.3
B25 | 0.253
B26 | 0.286
B27 | 0.317
B28 | 0.201
B29 | 0.257
